In the supplement of paper PMC3334620:
The full ranking holds about 33,000 sequences; the median of “E-score (-0.5 to 0.5)” is about -0.054, and the highest 2% start at about 0.35. The list shows a part of the results.

Each sequence was assayed against T1, Stb5 (UniProt P38699) (assay: PBM E-score (8-mer binding enrichment) (E-score (-0.5 to 0.5)); higher = stronger / more preferred TF binding; most listed sequences are background and not binding sites). Settings: protein concentration: 200 nM; construct: GST-full length.
T1 sequence: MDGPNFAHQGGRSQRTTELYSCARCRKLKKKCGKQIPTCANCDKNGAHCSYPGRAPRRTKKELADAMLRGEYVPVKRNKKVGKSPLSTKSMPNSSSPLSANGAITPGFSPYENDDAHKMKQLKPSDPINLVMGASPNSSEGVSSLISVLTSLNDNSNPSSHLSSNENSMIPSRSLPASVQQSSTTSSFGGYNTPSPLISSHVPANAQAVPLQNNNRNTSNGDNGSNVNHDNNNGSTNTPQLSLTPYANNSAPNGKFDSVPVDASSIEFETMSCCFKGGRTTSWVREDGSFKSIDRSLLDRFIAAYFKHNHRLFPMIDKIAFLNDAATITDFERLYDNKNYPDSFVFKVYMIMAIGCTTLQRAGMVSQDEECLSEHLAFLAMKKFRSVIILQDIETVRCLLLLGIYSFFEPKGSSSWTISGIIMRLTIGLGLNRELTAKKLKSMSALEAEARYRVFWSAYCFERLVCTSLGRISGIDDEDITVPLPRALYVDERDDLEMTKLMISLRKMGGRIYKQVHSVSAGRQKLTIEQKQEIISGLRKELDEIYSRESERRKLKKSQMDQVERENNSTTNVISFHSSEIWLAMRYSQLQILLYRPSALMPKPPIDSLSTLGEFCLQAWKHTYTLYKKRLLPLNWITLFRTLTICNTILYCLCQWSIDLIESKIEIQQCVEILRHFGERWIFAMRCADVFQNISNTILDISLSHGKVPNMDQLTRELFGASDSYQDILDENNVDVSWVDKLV
Method: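 Universal 'all 10-mer' protein binding microarrays (Agilent AMADID 015681) probed with GST-tagged S. cerevisiae TFs (full-length or DBD) made by in vitro transcription/translation (PURExpress), about 100-200 nM. Bound TF was detected with fluorescent anti-GST. Each ungapped 8-mer (which stands for itself and its reverse complement) is scored by the PBM enrichment score (E-score), a modified Wilcoxon-Mann-Whitney statistic from -0.5 to +0.5, computed with the Universal PBM Analysis Suite. Scale: above 0.35 generally sequence-specific binding.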
For TCCCAACA, the “PBM E-score” value was -0.108. In the case of CCTCAACA, the “PBM E-score” value is reported as -0.061. With ACCCAGTC the “PBM E-score” value was -0.0393. With CGAAGCAA the “PBM E-score” value was -0.131. CAGTTCCA was tested, and the “PBM E-score” value was -0.105. For CACACTGC, the “PBM E-score” value was -0.0183. With AGTCCTAT the “PBM E-score” value was -0.0967. For AAAGTTCG, the “PBM E-score” value was -0.114. For CGAACCAA, the “PBM E-score” value was -0.0395. With GGACTTAA the “PBM E-score” value was 0.373. For CCCGCGAG, the “PBM E-score” value was 0.275. For AAAATCAC, the “PBM E-score” value was -0.092. For AGTCAAGA, the “PBM E-score” value was -0.214. For AAGGTGAA, the “PBM E-score” value was -0.00388. GTAGAAAC was tested, and the “PBM E-score” value was 0.123. AAAATTTT was tested, and the “PBM E-score” value was -0.002. ATTTGCTA was tested, and the “PBM E-score” value was -0.0128. For AACCGTAG, the “PBM E-score” value was -0.118. CGATCGAC was tested, and the “PBM E-score” value was 0.0669. In the case of ATTCAATA, the “PBM E-score” value is reported as -0.0406. For TAGCATGA, the “PBM E-score” value was -0.178. For TATTCTAA, the “PBM E-score” value was 0.0373. TTCATCAA was tested, and the “PBM E-score” value was -0.0727. For AGGATAAG, the “PBM E-score” value was 0.0121. For CACCTGAG, the “PBM E-score” value was -0.257. In the case of CGAATATC, the “PBM E-score” value is reported as -0.0932. For TGGGTGAA, the “PBM E-score” value was 0.0477. In the case of GACCAGGA, the “PBM E-score” value is reported as -0.127. For GCGGCTAA, the “PBM E-score” value was 0.217. ACAGGAAT was tested, and the “PBM E-score” value was -0.225. For AATTATAG, the “PBM E-score” value was -0.079. With GCGTATGA the “PBM E-score” value was 0.0661. With AACCAATG the “PBM E-score” value was -0.285. AAGCCAAC was tested, and the “PBM E-score” value was -0.172. With ATCAACAT the “PBM E-score” value was -0.262. AGGTAAGA was tested, and the “PBM E-score” value was -0.126. With CTAGCGAG the “PBM E-score” value was -0.263. For CAGCGTGC, the “PBM E-score” value was 0.0885. For TGCCTCCA, the “PBM E-score” value was -0.237. For ATTTTCAC, the “PBM E-score” value was 0.0625. CCAGTCCC was tested, and the “PBM E-score” value was -0.0931. In the case of TTCGTCAA, the “PBM E-score” value is reported as -0.226. For CCCCATGC, the “PBM E-score” value was 0.0392. AAGAACGT was tested, and the “PBM E-score” value was -0.222. With CTACTATC the “PBM E-score” value was 0.111. With ATCAGTAC the “PBM E-score” value was -0.0547. CAGACCCG was tested, and the “PBM E-score” value was 0.119. In the case of ACGGGCAA, the “PBM E-score” value is reported as 0.138. For GTCTAAAC, the “PBM E-score” value was 0.0672. For CAATTCAG, the “PBM E-score” value was -0.221. GTCTCGTA was tested, and the “PBM E-score” value was -0.104. With GAGGATCC the “PBM E-score” value was -0.00498. For ACACATGC, the “PBM E-score” value was -0.0683. In the case of AATCATGC, the “PBM E-score” value is reported as -0.032. With CTCAAGCA the “PBM E-score” value was -0.368. For TAAACAGA, the “PBM E-score” value was -0.101. With ATCACCTA the “PBM E-score” value was -0.11. In the case of CATTCTGC, the “PBM E-score” value is reported as -0.126. For AAGTGGAG, the “PBM E-score” value was -0.197. For AACGGTGA, the “PBM E-score” value was 0.355. AATACAAT was tested, and the “PBM E-score” value was -0.0439. With ATCCGTTC the “PBM E-score” value was 0.177. With CACGACGA the “PBM E-score” value was -0.184. In the case of ATGAGATC, the “PBM E-score” value is reported as -0.146. With CAAATTAA the “PBM E-score” value was -0.0662. CAAAACGA was tested, and the “PBM E-score” value was -0.172. In the case of ACCCATCC, the “PBM E-score” value is reported as -0.11. AAGTGGGG was tested, and the “PBM E-score” value was -0.0897. With AGCACTTC the “PBM E-score” value was -0.288. For GAGCAATA, the “PBM E-score” value was -0.118. CATTAGTA was tested, and the “PBM E-score” value was 0.0522. For TCGATAGA, the “PBM E-score” value was -0.0352. In the case of TCATCAAA, the “PBM E-score” value is reported as -0.201. In the case of CACATCTC, the “PBM E-score” value is reported as -0.151. For TCGTTAAA, the “PBM E-score” value was 0.196. ACTCATCA was tested, and the “PBM E-score” value was -0.258. For ACCGTTAT, the “PBM E-score” value was 0.145. AATCGATA was tested, and the “PBM E-score” value was -0.274. For AGGCACCA, the “PBM E-score” value was -0.0686. CCTCCAAG was tested, and the “PBM E-score” value was -0.229. GAACACCA was tested, and the “PBM E-score” value was -0.132. With ATTAACAA the “PBM E-score” value was -0.0234. For AGAGCCCG, the “PBM E-score” value was 0.309. With AATAGTTA the “PBM E-score” value was -0.0392. ACGCCTAC was tested, and the “PBM E-score” value was -0.128. For GAATGACC, the “PBM E-score” value was 0.238.
